# From PubChem BioAssay (NCATS)
# “And” between values parts separate entries of the source, which are not always exact repeats. Equal values may be shown once. This list was built around the results that the source calls inconclusive (neither active nor inactive); the mix of calls is not that of the screen. For some assays here: No potency is given beside an inconclusive call; the fits are too rough. The source made the active and inactive calls. Unless noted, calls come from the whole dose curve; as a rule, active = well fitted curve in either direction with a large enough effect (not every such curve was filed as active); inconclusive = small, poorly fitted or top-dose-only effect, or another doubt; inactive = flat fitted curve, though single readings scatter.
# How the values were obtained:
# [1] = AP1 Signaling Pathway (AID 357); conditions: ME-180 AP-1-bla reporter, EGF-induced, beta-lactamase ratio, 5 h;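 note: ME-180 reporter cells stimulated with EGF at its EC50 level; top concentration of the series differs between compounds; % is set by controls: 0 for no effect and ±100 for the full control effect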
# Method in brief: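 In this screen, ME-180 cells in Opti-MEM with 0.5% dialyzed FBS received EC50 EGF and compound titrations for 5 h. AP-1 reporter beta-lactamase was detected via CCF4 ratio, giving AC50 for positive and negative modulators.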
# [2] = NFAT Signaling Pathway (AID 444); conditions: Jurkat NFAT-bla M1, carbachol, beta-lactamase ratio, 5 h;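 note: carbachol stimulus at about its EC50 of 1 µM final; % is set by controls: 0 for no effect and ±100 for the full control effect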
# Method in brief: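 Jurkat cells with NFAT-driven β-lactamase reporter and co-expressed M1 receptor, stimulated with carbachol (final 1 uM, ~EC50), compound titration, 5 h at 37 °C. CCF4 loaded 1 h at RT; 460/530 nm ratio gave %activity and AC50.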
# [3] = Cell Viability - Jurkat (AID 426;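 active = dose-dependent loss of cell ATP signal giving a full or clear fitted curve, ranked by lower potency value; inconclusive = weak partial curve or response only at the top dose; inactive = no loss of viability signal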;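 note: potency is the fitted concentration of half-maximal effect; cells exposed to compound for 40 hours at 37 °C before ATP read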); conditions: qHTS
# Method in brief: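 qHTS, 1536-well; Jurkat E6-1, 5000 cells/well, complete medium; cpd 40 hr, 37 °C; CellTiter-Glo 20 min RT; luminescence. AC50 by Hill fit.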
# [4] = Cell Viability - HepG2 (AID 433; calls by dose curve;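 note: potency is the fitted concentration of half-maximal effect; potency for ATP loss meaning cytotoxicity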); conditions: qHTS
# Method in brief: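 HepG2 cells, 1500 per well, treated 40 hr at 37 °C in complete medium; viability from intracellular ATP by CellTiter-Glo luminescence. Normalized to DMSO and 100 uM tamoxifen; AC50 from Hill fit of qHTS concentration-response.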
# [5] = Cell Viability - MRC5 (AID 434; calls by dose curve;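 note: potency is the fitted concentration of half-maximal effect; cells exposed to compound for 40 hours at 37 °C; potency reflects cytotoxicity seen as loss of intracellular ATP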); conditions: MRC5 lung fibroblast viability, qHTS
# Source text: (§1) NIH Chemical Genomics Center [NCGC]
# (§2) NIH Molecular Libraries Screening Centers Network [MLSCN]
# (§3) National Institutes of Environmental Health Sciences [NIEHS]
# (§4) National Toxicology Program [NTP]
# We have developed a 1536-well cell-based assay for quantitative high throughput screening (qHTS) against a number of cell lines to determine in vitro cytotoxicity of small molecules. This particular assay uses the MRC5 cell line which is derived from normal human lung fibroblasts.
# (§5) NCGC Assay Protocol Summary:
# (§6) The CellTiter-Glo luminescent cell viability assay (Promega) is a homogeneous method to measure the number of viable cells in culture. The end point readout of this assay is based on quantitation of intracellular ATP, an indicator of metabolic activity, using the luciferase reaction. Luciferase catalyzes the oxidation of beetle Luciferin to oxyluciferin and light in the presence of ATP. The luminescent signal is proportional to amount of ATP present.
# (§7) Using the CellTiter-Glo luminescent cell viability assay, the amount of cellular ATP was measured in the MRC5 cell line with complete culture medium following compound treatment for 40 hours. The assay was performed in opaque white Kalypsys 1536-well plates. In the screen, tamoxifen and doxorubicin were used as positive controls. Library compounds were measured for their ability to cause acute toxicity in the cell line, as reflected by a decrease in intracellular ATP levels, in a concentration-dependent manner. Data were normalized to the controls for basal activity (DMSO only) and 100% inhibition (100 uM tamoxifen). AC50 values were determined from concentration-response data modeled with the standard Hill equation.
# qHTS protocol for CellTiter Glo MRC5 cellular assay
# (§8) [Step] [Parameter] [Value] [Description]
# 1. Reagent; 5 uL; 1500 MRC5 cells/well
# (§9) 2. Time; 5 hr; 37 °C incubation
# (§10) 4. Controls; 23 nL; Tamoxifen 0.34 uM to 100 uM & Doxorubicin 0.02 nM to 100 uM
# (§11) 5. Time; 40 hr; 37 °C incubation
# (§12) 6. Reagent; 5 uL; CellTiter Glo reagent
# (§13) 7. Time; 20 min; Room Temperature
# (§14) 8. Detection; Luminescence; Viewlux plate reader
# Keywords: cell viability, cytotoxicity, MRC5 cell line, luminescence, NTPHTS, NTPHTS_NCGC, NIEHS, EPA, DSSTox, MLSMR, MLSCN, NIH Roadmap, qHTS, NCGC
# [6] = Cell Viability - SK-N-SH (AID 435; calls by dose curve;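 note: potency is the fitted concentration of half-maximal effect; compound exposure lasted 40 h at 37 °C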); conditions: SK-N-SH neuroblastoma cell viability qHTS
# Method in brief: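 SK-N-SH neuroblastoma cells (1500/well) treated 40 h at 37 °C in complete medium; viability read as cellular ATP by CellTiter-Glo luminescence. Normalized to DMSO and 100 uM tamoxifen; AC50 from Hill fits of qHTS concentration-response.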
# [7] = target: Cytochrome P450 1A2 (Homo sapiens) (UniProt P05177); test: p450-cyp1a2 (AID 410; calls by dose curve; note: potency is the fitted concentration of half-maximal effect); conditions: recombinant CYP1A2, luciferin-ME demethylation, luminescence
# UniProt P05177, sequence (P05177 whole entry, looked up): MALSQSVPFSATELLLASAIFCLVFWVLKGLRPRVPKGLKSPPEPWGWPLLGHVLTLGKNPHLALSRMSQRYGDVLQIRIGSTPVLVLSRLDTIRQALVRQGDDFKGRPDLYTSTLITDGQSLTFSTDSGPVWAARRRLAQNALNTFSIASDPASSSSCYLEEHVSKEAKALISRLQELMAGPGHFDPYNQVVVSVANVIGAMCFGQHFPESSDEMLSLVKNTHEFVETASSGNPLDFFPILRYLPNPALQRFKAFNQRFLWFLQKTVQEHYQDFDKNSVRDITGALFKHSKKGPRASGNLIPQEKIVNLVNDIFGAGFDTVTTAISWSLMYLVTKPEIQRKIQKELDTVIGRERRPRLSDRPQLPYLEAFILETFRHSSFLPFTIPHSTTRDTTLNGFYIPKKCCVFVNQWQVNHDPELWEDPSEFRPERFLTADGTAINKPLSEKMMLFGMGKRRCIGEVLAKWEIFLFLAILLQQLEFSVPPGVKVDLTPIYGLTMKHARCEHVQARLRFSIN
# Method in brief: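 Luminescent readout of luciferin formed from Luciferin-ME by human CYP1A2; data normalized against complete inhibition by 57 uM furafylline. Enzyme 20nM, substrate 100uM at Km, 100mM KPO4 buffer, 60 min reaction at room temperature.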
# [8] = Cell Viability - Hek293 (AID 427;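 active = compounds whose dose-response curve shows a full or clear partial loss of cell viability, called from curve shape rather than a numeric limit; inconclusive = weak partial curves or an effect only at the top dose; inactive = no dose-dependent loss of viability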;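 note: potency is the fitted concentration of half-maximal effect; cells exposed to compound for 40 hours at 37 °C before reading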); conditions: qHTS
# Method in brief: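 Luminescent ATP content (CellTiter-Glo, 20 min at room temperature) was measured after a 40 hr, 37 °C compound exposure of HEK293 cells. AC50 values came from Hill-equation fits of qHTS concentration-response data normalized to DMSO and 100 uM tamoxifen.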
# [9] = Cell Viability - BJ (AID 421; calls by dose curve;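 note: potency is the fitted concentration of half-maximal effect; cells exposed to compound for 40 hours at 37 °C before readout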); conditions: BJ fibroblast viability, qHTS
# Source text: as §1, §2, §3, §4
# We have developed a 1536-well cell-based assay for quantitative high throughput screening (qHTS) against a number of cell lines to determine in vitro cytotoxicity of small molecules. This particular assay uses the BJ cell line from ATCC which is derived from normal human foreskin fibroblasts.
# as §5, §6
# as §7, with “BJ” for “MRC5”
# qHTS protocol fo CellTiter Glo BJ cellular assay
# as §8
# 1. Reagent; 5 uL; 1500 BJ cells/well
# as §9, §10, §11, §12, §13, §14
# Keywords: cell viability, cytotoxicity, BJ cell line, luminescence, NTPHTS, NTPHTS_NCGC, NIEHS, EPA, DSSTox, MLSMR, MLSCN, NIH Roadmap, qHTS, NCGC
# [10] = Stat Signaling Pathway (AID 446); conditions: ME-180 SIE beta-lactamase reporter, IL-6 stimulated, 5 h;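 note: ME-180 cervical cancer cells given 40 pM IL-6 alongside compound; SIE-controlled beta-lactamase reporter measured as 460/530 nm FRET emission ratio; top concentration of the series differs between compounds; % is set by controls: 0 for no effect and ±100 for the full control effect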
# Method in brief: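 Reporter line: ME-180 cervical carcinoma, SIE-beta-lactamase. Treatment: compound with 40 pM IL-6, 5 hrs, 37 C, in low-serum OPTI-MEM with 10 mM HEPES pH 7.3. Detection: 460/530 nm fluorescence.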
# Tags give direction and shape of the fitted curve.
compound,measurement,setting,value
O=c1c(O)c(-c2ccc(O)c(O)c2)oc2cc(O)cc(O)c12,"activity change, negative = inhibition",[1]; at 17.2 µM (top of the series),inconclusive: -61.3% [inhibitor]
same,"activity change, negative = inhibition",[1]; at 38 µM (top of the series),inconclusive: -77.8% [inhibitor]
same,"activity change, negative = inhibition",[2]; at 17.2 µM (top of the series),inconclusive: 56.4% [activator]
same,"activity change, negative = inhibition",[2]; at 38 µM (top of the series),inconclusive: 4.81% [activator]
CCc1cccc(N(C)C(N)=Nc2cccc3ccccc23)c1,"activity change, negative = inhibition",[1]; at 38 µM (top of the series),inconclusive: 39.2% [activator]
COC(=O)C1=C(C)NC(C)=C(C(=O)OC)C1c1ccccc1[N+](=O)[O-],"activity change, negative = inhibition",[1]; at 17.2 µM (top of the series),inconclusive: -38.8% [inhibitor]
same,"activity change, negative = inhibition",[1]; at 38 µM (top of the series),inconclusive: -47% [inhibitor]
same,Potency,[3],inconclusive [partial curve]
same,Potency,[4],inactive: > 92 µM
same,Potency,[5],inconclusive [partial curve]
same,Potency,[6],inconclusive [partial curve]
same,"activity change, negative = inhibition",[2]; at 38 µM (top of the series),inconclusive: -50.9% [inhibitor]
Cc1cc(C(C)(C)C)c(O)c(C)c1CC1=NCCN1,Potency,[7],inconclusive [decreasing]
same,"activity change, negative = inhibition",[2]; at 17.2 µM (top of the series),inconclusive: -50.9% [inhibitor] and inconclusive: -74.9% [inhibitor]
same,"activity change, negative = inhibition",[2]; at 38 µM (top of the series),inconclusive: -54.7% [inhibitor]
O=c1cc(N2CCOCC2)oc2c(-c3ccccc3)cccc12,Potency,[7],active: 1.58 µM and active: 200 nM
O=C(O)c1cc(=O)c2c(Cl)cc(Cl)cc2[nH]1,Potency,[7],inconclusive [decreasing]
CCC1(c2ccccc2)C(=O)NCNC1=O,Potency,[7],inconclusive [decreasing]
O=C1CN(/N=C/c2ccc([N+](=O)[O-])o2)C(=O)N1,Potency,[8],inconclusive [partial curve]
same,Potency,[4],inconclusive [partial curve]
O=c1[nH]c(=O)c2nc3ccccc3nc2[nH]1,Potency,[7],active: 12.6 µM
C[C@](N)(Cc1ccc(O)c(O)c1)C(=O)O,Potency,[7],inconclusive [decreasing]
Nc1ccccc1N,Potency,[3],inconclusive [partial curve]
Oc1ccc(O)cc1,Potency,[8],inconclusive [partial curve]
same,Potency,[6],inconclusive [partial curve]
Nc1nc2ccc([N+](=O)[O-])cc2s1,Potency,[3],inactive: > 92 µM
CCCCN(CCCC)CCC(O)c1cc2c(Cl)cc(Cl)cc2c2cc(C(F)(F)F)ccc12 (centres undefined),Potency,[7],inconclusive [decreasing]
N=C1N=C(N)c2cc3ccccc3cc21,Potency,[9],active: 62.7 µM
same,Potency,[3],active: 32.2 µM
same,Potency,[8],inconclusive [partial curve]
same,Potency,[5],inconclusive [single point]
c1cnc2c(c1)ccc1cccnc12,Potency,[8],active: 2.4 µM
same,"activity change, negative = inhibition",[2]; at 7.69 µM (top of the series),inconclusive: -50.6% [inhibitor]
same,"activity change, negative = inhibition",[2]; at 38 µM (top of the series),inconclusive: -30.8% [inhibitor]
CCN(CC)C(=S)SSC(=S)N(CC)CC,"activity change, negative = inhibition",[1]; at 38 µM (top of the series),inconclusive: 71.6% [activator]
same,"activity change, negative = inhibition",[2]; at 17.2 µM (top of the series),inconclusive: -102% [inhibitor]
same,"activity change, negative = inhibition",[2]; at 38 µM (top of the series),inconclusive: -66.1% [inhibitor]
O=c1c(-c2ccc(O)cc2)coc2cc(O)cc(O)c12,Potency,[3],inconclusive [single point]
same,Potency,[6],inconclusive [partial curve]
C#C[C@]1(O)CC[C@H]2[C@@H]3CCc4cc(O)ccc4[C@H]3CC[C@@]21C,Potency,[5],inconclusive [single point]
O=C(O)c1cc([N+](=O)[O-])ccc1NCCCc1ccccc1,Potency,[7],inconclusive [decreasing]
CCN(CC)CCNC(=O)c1cc(Cl)c(N)cc1OC,Potency,[7],inconclusive [decreasing]
CN[C@H](CC(=O)O)C(=O)O,Potency,[7],inconclusive [decreasing]
CN(C)c1ccc(C(=C2C=CC(=[N+](C)C)C=C2)c2ccccc2)cc1,Potency,[9],active: 1.14 µM
same,Potency,[3],active: 0.0233 µM
same,Potency,[6],active: 0.052 µM
same,"activity change, negative = inhibition",[2]; at 7.69 µM (top of the series),inconclusive: -93% [inhibitor]
same,"activity, negative = inhibition",[10]; at 7.69 µM (top of the series),inconclusive: -47.5% [inhibitor]
O=C(O)c1cc(O)c(O)c(O)c1,Potency,[8],inconclusive [single point]
CC(C)C(=O)Nc1ccc([N+](=O)[O-])c(C(F)(F)F)c1,Potency,[9],inconclusive [single point]
O=C1C(SCCO)=C(SCCO)C(=O)c2ccccc21,"activity change, negative = inhibition",[1]; at 38 µM (top of the series),active: -104%
same,"activity change, negative = inhibition",[2]; at 38 µM (top of the series),active: -94.5%
CC1(C)CCC2=C(O1)c1ccccc1C(=O)C2=O,"activity change, negative = inhibition",[1]; at 38 µM (top of the series),inconclusive: -107% [inhibitor]
same,"activity change, negative = inhibition",[2]; at 38 µM (top of the series),inconclusive: -99.2% [inhibitor]
same,"activity, negative = inhibition",[10]; at 38 µM (top of the series),inconclusive: -83% [inhibitor]
CN(C)c1ccc2nc3ccc(=[N+](C)C)cc-3sc2c1,Potency,[9],inconclusive [partial curve]
O=C(Nc1ccc([N+](=O)[O-])cc1Cl)c1cc(Cl)ccc1O,"activity change, negative = inhibition",[1]; at 17.2 µM (top of the series),inconclusive: -40.4% [inhibitor]
same,"activity change, negative = inhibition",[2]; at 17.2 µM (top of the series),active: -101%
same,"activity change, negative = inhibition",[2]; at 38 µM (top of the series),active: -89.8%
